# Test results as given in PubChem BioAssay AID894 (National Center for Advancing Translational Sciences (NCATS), 2007).
# Screen size: about 150,000 compounds; about 6,500 (4.3%) were called active. Inconclusive results, whose numbers are uncertain, are shown with a selection of clear calls. Calls follow the shape of the dose curve; as a rule, active = well fitted inhibition curve with a large enough effect (not every such curve was filed as active); inconclusive = small, poorly fitted or top-dose-only effect, or another doubt; inactive = no such curve, though single readings can be large or run the other way. No potency is given beside an inconclusive call; the fits are too rough.
# Biological target: 15-hydroxyprostaglandin dehydrogenase [NAD(+)] (Homo sapiens) (UniProt P15428)
# Sequence of UniProt P15428 (P15428 whole entry, looked up): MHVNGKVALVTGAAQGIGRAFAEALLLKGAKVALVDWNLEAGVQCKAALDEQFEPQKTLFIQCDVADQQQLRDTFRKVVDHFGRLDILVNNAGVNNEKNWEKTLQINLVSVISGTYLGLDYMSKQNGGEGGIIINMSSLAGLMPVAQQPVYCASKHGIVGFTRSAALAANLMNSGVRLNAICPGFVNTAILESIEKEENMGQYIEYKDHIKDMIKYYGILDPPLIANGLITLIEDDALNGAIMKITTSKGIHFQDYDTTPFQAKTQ
# Assay: qHTS Assay for Inhibitors of HPGD (15-Hydroxyprostaglandin Dehydrogenase)
# Conditions: purified HPGD, NADH fluorescence kinetic, PGE2 substrate; activity change, negative = inhibition: stronger effect = lower value
# In short: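 20 nM HPGD preincubated 15 min at room temperature with compound in 50 mM Tris-HCl pH 8, 0.01% Tween 20. Started with 1 mM NAD+ and 30 uM prostaglandin E2; NADH fluorescence (360/450 nm) read 5 times over 30-s intervals, last minus first.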
# % is scaled to controls: 0 for no effect and ±100 for the full control effect; potency is read from the fitted curve at half-maximal effect; tags tell the direction and shape of the fitted curve.
SMILES,Potency,"activity change, negative = inhibition"
CCOC(=O)C1=C(C)NC(C)=C(C(=O)OCC)C1c1ccc(OC)cc1,"inconclusive [inhibitor, single point]",–
Cc1ccccc1Cn1cc(NC(=O)c2cc(-c3cccs3)on2)cn1,"inconclusive [inhibitor, partial curve]",–
Cc1cc(N2CCN(c3ccccc3)CC2)n2c(n1)nc1ccccc12,"inconclusive [inhibitor, partial curve]",–
COc1ccc2c(Cl)c(C(=O)NCc3ccco3)sc2c1,active: 14.1 µM,–
CN(C)S(=O)(=O)c1ccc(S(=O)(=O)N(CC(=O)Nc2ccccc2)CC2CCCO2)cc1 (configuration not stated),–,inactive: -15.3%
CCOC(=O)CS(=O)(=O)c1nc(-c2ccccc2)cc(C(F)(F)F)n1,active: 14.1 µM,–
CS(=O)(=O)Nc1ccccc1C(=O)Nc1cccc(Cl)c1,"inconclusive [inhibitor, partial curve, poor fit]",–
C=CCOc1ccc(Br)cc1/C=N/O,active: 4.47 µM,–
O=C(CN1C(=O)C2C3C=CC(C3)C2C1=O)Nc1ccc2nccnc2c1 (configuration not stated),"inconclusive [inhibitor, partial curve]",–
Cc1cc(C)c(C)c(S(=O)(=O)N2C(=S)NC(=O)C2C(C)C)c1C (configuration not stated),"inconclusive [inhibitor, single point]",–
Cc1csc(NC(=O)CCc2c(C)nc3cc(-c4cccc(F)c4)nn3c2C)n1,"inconclusive [inhibitor, partial curve]",–
CCOc1cc(/C=C2\C(=O)ON=C2C)ccc1OCc1ccccc1,active: 7.08 µM,–
COc1cc2c(cc1NC(=O)COC(=O)c1ccc(C(C)(C)C)cc1)oc1ccccc12,"inconclusive [inhibitor, partial curve]",–
O=C(C1CCN(S(=O)(=O)c2ccc(Cl)cc2)CC1)N1CCOCC1,–,inactive: -14.9%
COCCNC(=O)c1c(N)sc2c1CCCC2,"inconclusive [inhibitor, partial curve]",–
CCOC(=O)CSc1nc(C)c2cc(OC)ccc2n1,"inconclusive [inhibitor, partial curve]",–
CCCCNC(=O)c1onc(CSc2cccc(F)c2)c1C(=O)O,"inconclusive [inhibitor, partial curve, poor fit]",–
O=C(CCn1cccc1)NCc1ccc(Cl)cc1,"inconclusive [inhibitor, partial curve]",–
O=C1NN(c2ccccc2)C(=O)/C1=C/c1coc2ccccc2c1=O,"inconclusive [inhibitor, single point]",–
C[C@@H]1[C@H](O)[C@@H](C)/C=C/C=C/C=C/C=C/C=C/C=C/C=C/[C@H](O[C@@H]2O[C@H](C)[C@@H](O)[C@H](N)[C@@H]2O)C[C@@H]2O[C@](O)(C[C@@H](O)C[C@@H](O)[C@H](O)CC[C@@H](O)C[C@@H](O)CC(=O)O[C@H]1C)C[C@H](O)[C@H]2C(=O)O,–,inactive: -9.87%
C/C(=N/NC(=O)c1ccoc1C)c1ccc(N2CCOCC2)cc1,"inconclusive [inhibitor, partial curve]",–
COc1ccc(Nc2ncc(C(=O)N3CCN(c4ccccc4OC)CC3)c3ccccc23)cc1,"inconclusive [inhibitor, partial curve]",–
CCN(CC1COc2ccccc2O1)C(=S)Nc1ccccc1 (configuration not stated),"inconclusive [inhibitor, single point]",–

SMILES,Potency,"activity change, negative = inhibition"
COCCn1c(-c2ccco2)nc2nc3ccccc3nc21,"inconclusive [inhibitor, partial curve]",–
CCOc1cc(S(=O)(=O)N2CCN(c3ccc(F)cc3)CC2)c(OCC)cc1-n1cnnn1,"inconclusive [inhibitor, single point]",–
O=C(/C=C/c1ccco1)NC(=S)Nc1cc(-c2nc3ccccc3s2)ccc1Cl,"inconclusive [inhibitor, partial curve]",–
Cn1cnnc1SCC(=O)Nc1sc2c(c1C(N)=O)CCC2,active: 17.8 µM,–
CC(C)OC(=O)[C@@H]1CC[C@H](C)[C@@H](CCCC=O)O1,–,inactive: -9.12%
COc1cccc(C2=N/C(=C\N(C)C)C(=O)O2)c1,"inconclusive [inhibitor, partial curve]",–
CC(C)[C@@H](C)/C=C\[C@@H](C)[C@@H]1CC[C@H]2C3=CC=C4C[C@@H](O)CC[C@]4(C)[C@H]3CC[C@]21C,–,inactive: -4.46%
CCOC(=O)C1CCN(CC(O)COc2ccc(C(C)(C)CC)cc2)CC1 (configuration not stated),–,inactive: -6.03%
O=C(NC1CCCC1)c1cccc(NC(=O)c2ccco2)c1,"inconclusive [inhibitor, partial curve]",–
O=C1c2oc3ccccc3c(=O)c2C(c2cccnc2)N1CCCN1CCOCC1 (configuration not stated),–,inactive: -3.15%
CCOC(=O)c1c(NC(=O)c2ccn(CC)n2)sc2c1CCCC2,"inconclusive [inhibitor, single point]",–
O=C(CSc1cccc2cccc(Cl)c12)OCC(=O)N1CCN(C(=O)c2ccco2)CC1,"inconclusive [inhibitor, partial curve]",–
Brc1nnc2n1-c1ccccc1Sc1ccccc1-2,"inconclusive [inhibitor, single point]",–
Cc1c(C(=O)N2CC(C)OC(C)C2)sc2nc(-c3ccc(F)cc3)cn12 (configuration not stated),active: 35.5 µM,–
CN(C)CCNc1oc(-c2cccc(Cl)c2)nc1C#N,"inconclusive [inhibitor, partial curve]",–
CC(=O)Nc1ccc(S(=O)(=O)NCC(=O)OCC(=O)NC23CC4CC(CC(C4)C2)C3)cc1,–,inactive: -12.4%
COC(=O)c1c(NC(=O)c2ccccc2)sc(Cc2ccccc2)c1C,"inconclusive [inhibitor, partial curve]",–
CSCCC(NS(=O)(=O)c1ccc(Cl)cc1)C(=O)OCC(=O)NC12CC3CC(CC(C3)C1)C2 (configuration not stated),–,inactive: -2.98%
COc1ccc(-c2cc(C(=O)N/N=C\c3cc(OC)c(OC)c(OC)c3)[nH]n2)cc1,"inconclusive [inhibitor, partial curve]",–
CC(C)(O[C@@H]1O[C@H](CO)[C@@H](O)[C@H](O)[C@H]1O)[C@H]1Cc2cc3ccc(=O)oc3cc2O1,"inconclusive [inhibitor, partial curve]",–
Cc1cc(C)nc(NC(=O)c2cc(-c3ccc(C)s3)nc3ccccc23)c1,"inconclusive [inhibitor, partial curve]",–
Oc1ccc(CN2CCCCC2)nc1-c1ccccc1,"inconclusive [inhibitor, partial curve]",–
Cc1ccc(-c2nn3c(C)nnc3s2)cc1NCc1c(F)cccc1Cl,"inconclusive [inhibitor, single point]",–

SMILES,Potency,"activity change, negative = inhibition"
CCCCCCCCc1nc(=S)[nH][nH]1,active: 15.8 µM,–
CCN(CC)Cc1c(O)c(Cl)cc2c3c(c(=O)oc12)CCCC3,"inconclusive [inhibitor, partial curve]",–
CC(Cc1cccs1)NC(=O)c1cccc(Cl)c1 (configuration not stated),active: 7.94 µM,–
CC1CN(C(=O)c2cc3c(=O)n4ccccc4nc3s2)CC(C)O1 (configuration not stated),"inconclusive [inhibitor, partial curve]",–
c1cnc2c(c1)ccc1cccnc12,–,inactive: -7.73% [middle of 4 runs]
CC(=O)Nc1c(-c2ccccc2)nc2ncccn12,"inconclusive [inhibitor, partial curve]",–
COC(=O)C1C2CC3c4[nH]c5cc(OC)ccc5c4CCN3CC2CC(OC(=O)c2cc(OC)c(OC)c(OC)c2)C1OC (configuration not stated),–,inactive: -9.19%
Cc1cc(NC(=O)CSc2nc3ccccc3c(=O)n2Cc2ccccc2)no1,–,inactive: -13%
COc1ccc(Cl)cc1C(=O)Nc1ccc(NC(=O)c2ccco2)cc1,"inconclusive [inhibitor, partial curve]",–
Cc1ccc(C)n1NC(=O)c1ccccc1O,"inconclusive [inhibitor, partial curve]",–
CCc1cc2c(=O)c(-n3cnc4ccccc43)coc2cc1O,"inconclusive [inhibitor, partial curve]",–
COC(=O)N1C2CC(=O)O[C@@H]3c4cc5c(cc4[C@]1(C)[C@@]3(Br)c1ccccc12)OCO5,"inconclusive [inhibitor, full curve]",–
COC(=O)c1ccc(NC(=S)NC2CC3CCC2C3)cc1 (configuration not stated),"inconclusive [inhibitor, partial curve]",–
CC(=O)c1ccccc1NC(=O)COC(=O)CCCN1C(=O)c2cccc3cccc(c23)C1=O,"inconclusive [inhibitor, single point]",–
COc1ccc(C2C=C(C)Nc3nc(SC)nn32)cc1 (configuration not stated),"inconclusive [inhibitor, partial curve]",–
COc1cccc(N2CCN(C3CC(=O)N(c4cccc(Cl)c4)C3=O)CC2)c1 (configuration not stated),–,inactive: 0.825%
CCCCCCc1ccc(-c2ncc(N)cn2)cc1,"inconclusive [inhibitor, partial curve]",–
CC(C)(C)c1ccc(/C=C/C(=O)N2CCOCC2)cc1,active: 25.1 µM,–
CCOc1cccc(OCCOc2ccccc2[N+](=O)[O-])c1,–,inactive: -13.9%
CCNC(=S)Nc1cc(OCC)c(NC(=O)c2cccs2)cc1OCC,–,inactive: -12.4%
O=c1c2c(n3nnnc3n1Cc1ccccc1)-c1ccccc1CC21CCCC1,"inconclusive [inhibitor, single point]",–
